Measured values from PubChem BioAssay AID445 (National Center for Advancing Translational Sciences (NCATS), 2006).
In all, about 110,000 compounds went through this assay and about 40 (0.04%) were called active. The shares of active, inactive and inconclusive entries below differ from those in the screen. The call rests on the fitted dose curve; in most records, active means well fitted curve in the direction sought with a large enough effect in the signal ratio (not every such curve was filed as active); inconclusive means small, poorly fitted or top-dose-only effect, or a change in a side signal; inactive means flat fitted curve, though single readings scatter; the % refers to the signal ratio. A potency beside an inconclusive call is a rough fit, not a confirmed value.

experiment: IkB Signaling; settings: ABC-DLBCL IkBa-CBG/CBR dual luciferase ratio (green luciferase fused to IkBa over red control in OCI-Ly3 lymphoma cells), 4 h; IkBa stabilization activation: at 57.1 µM (top of the series), scaled: untreated 0%, proteasome inhibitor 100% unless noted;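 on IkBa stabilization activation: 0% = basal untreated cells and 100% = reference inhibitor full response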
Method in brief: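 In this assay, an IκBα–CBG68 fusion accumulates when IKK-driven degradation is blocked; native CBR normalizes for cell number. OCI-Ly3 cells were treated 4 h with compound and doxycycline, then green and red light read after Chroma-Glo addition.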
Potency means the concentration at half of the fitted maximal effect.

| Compound | IkBa stabilization activation | Potency |
| --- | --- | --- |
| CC(C)(C)OC(=O)NCCCCCc1nnc(SCC(=O)Nc2cccc(Cl)c2)o1 | inconclusive: 12% [signal inhibitor] | – |
| CCOC(=O)C1CCCCN1C(=O)CCc1c(C)nc2ncnn2c1C (configuration not stated) | – | inconclusive: 1.58 µM [signal inhibitor, full curve] |
| N#CCCn1c(=O)cnc2cnc(Oc3cccc(Cl)c3)nc21 | inactive: 0.118% [at 11.4 µM, scaled: untreated 0%, proteasome inhibitor 100%] | – |
| COc1cc(Cl)c(C)cc1NC(=O)c1nn(C)c2c1CSc1ccccc1-2 | inconclusive: 1.95% [signal inhibitor] | – |
| Cc1cc(C(=O)CN2C(=O)C3CC=CCC3C2=O)c(C)n1-c1ccccc1 (configuration not stated) | inactive: 2.7% | – |
| CN(C)c1ccc(NC(=O)CN2CCN(S(=O)(=O)c3cc(Cl)ccc3Cl)CC2)cc1 | inconclusive: 2.15% [signal inhibitor] | – |
| Cc1cc(=O)n2[nH]c(NC(=O)c3cccc(Cl)c3)nc2n1 | inconclusive: 2.27% [signal inhibitor] | – |
| CC1=Nc2cc(C(=O)N3CCCCC3)ccc2Sc2ccc(C)cc21 | – | inconclusive: 20 µM [signal inhibitor] |
| Cc1c(C(=O)NCc2ccc(OC(C)C)cc2)sc2ncnc(N(C)C3CCCCC3)c12 | inconclusive: 0.149% [signal inhibitor] | – |
| O=S(=O)(c1ccc(Oc2ccc(Br)cc2)cc1)N1CCOCC1 | inconclusive: 2.62% [signal inhibitor] | – |
| O=C(CSc1nccn1Cc1ccc(Cl)cc1)Nc1ccc2c(c1)OCO2 | inconclusive: 2.08% [signal inhibitor] | – |
| O=C(Nc1ccc(Cl)c(C(F)(F)F)c1)C(Cc1ccccc1)NS(=O)(=O)c1cccc2nsnc12 (configuration not stated) | inconclusive: 0.432% [signal inhibitor] | – |
| N#Cc1cn(-c2ccccc2)nc1-c1ccccc1 | inactive: -0.795% | – |
| Cc1cc(C)cc(OCCSc2nc(-c3cccs3)nc3cc(=O)[nH]n23)c1 | inconclusive: 1.74% [signal inhibitor] | – |
| CCC(Sc1nc2ncccc2o1)C(=O)Nc1cccc(C)c1 (configuration not stated) | inconclusive: 9.18% [signal inhibitor] | – |
| CCc1ccc(C2c3c(-c4ccccc4)n[nH]c3C(=O)N2c2ccc(C(=O)O)cc2)cc1 (configuration not stated) | inconclusive: 2.45% [signal inhibitor] | – |
| O=C(CN1N=C(c2ccccc2)CCC1=O)NCc1ccc(F)cc1Cl | inconclusive: 1.95% [signal inhibitor] | – |
| O=S(=O)(NCCc1csc2nc(-c3ccc(Cl)cc3)nn12)c1ccc2c(c1)OCCO2 | inconclusive: 6.14% [signal inhibitor] | – |
| COc1ccc2c(c1)c1nnc(SC)nc1n2C | inactive: -0.948% | – |
| COC(=O)c1ccc2c(=O)n(CCCCCC(=O)NCc3ccc(OC)cc3)c(=O)[nH]c2c1 | inactive: -3.53% | – |
| CCSC1=C(C#N)C(c2ccc(Cl)cc2)C2=C(CCCC2=O)N1 (configuration not stated) | inconclusive: 2.4% [signal inhibitor] | – |

| Compound | IkBa stabilization activation | Potency |
| --- | --- | --- |
| COCCn1c(N)c(C(=O)NCc2cccs2)c2nc3ccccc3nc21 | inconclusive: 1.11% [signal inhibitor] | – |
| O=C(Nc1cccc(Cl)c1)c1cc(S(=O)(=O)N2CCC3(CC2)OCCO3)ccc1F | inconclusive: 4.41% [signal inhibitor] | – |
| CCN(CCCNC(=O)Cn1ncc2c3ccccc3n(C)c2c1=O)c1cccc(C)c1 | inconclusive: 0.804% [signal inhibitor] | – |
| Cc1ccccc1C(=O)n1nc(-c2cccnc2)nc1NCc1ccc(F)cc1 | inconclusive: -0.78% [signal inhibitor] | – |
| COc1ccc2cnn(CCOc3ccccc3)c(=O)c2c1OC | – | inconclusive: 25.1 µM [signal inhibitor, single point] |
| CCOC(=O)c1ccccc1NC(=O)COc1cc(=O)n(CC)c2ccccc12 | inconclusive: -0.925% [signal inhibitor] | – |
| Cc1cccc(C)c1NC(=O)Cn1c(=O)cc(C)c2c(C)nn(-c3cccc(Cl)c3C)c21 | inactive: 0.068% | – |
| COc1ccc(Cl)cc1NC(=O)c1sc2nc3c(cc2c1N)CN(C)CC3 | inconclusive: 0.959% [signal inhibitor] | – |
| O=C(CCC1N=C2c3ccccc3N=C(SCc3ccc(Cl)cc3)N2C1=O)NC1CCCCC1 (configuration not stated) | inconclusive: -1.15% [signal inhibitor] | – |
| O=C(COc1ccc2ccccc2c1Br)N1CCN(c2ccccn2)CC1 | inconclusive: -0.35% [signal inhibitor] | – |
| Cc1ccc(-n2ncc3c(N4CCCCC4)ncnc32)cc1 | – | inconclusive: 31.6 µM [signal inhibitor, partial curve] |
| CC(C)C[C@H]1C(=O)N2CCC[C@@H]2[C@]2(O)O[C@](NC(=O)[C@H]3C=C4c5cccc6[nH]c(Br)c(c56)C[C@H]4N(C)C3)(C(C)C)C(=O)N12 | inconclusive: -6.41% [signal inhibitor] | – |
| O=C(CN1CCN(C2CCCCC2)C(=O)C1=O)Nc1ccc(Cl)cc1 | inconclusive: 2.8% [signal inhibitor] | – |
| O=C1C=C(NCCc2cc(Br)c(O)c(Br)c2)C(=O)c2ncccc21 | – | inconclusive: 3.16 µM [signal inhibitor, partial curve] |
| Cc1ccc(C(=O)NC2CC3CCCC(C2)N3C(=O)NC2CCCCC2)cc1 (configuration not stated) | inconclusive: 2.91% [signal inhibitor] | – |
| Cc1noc(C)c1CSc1nc2ccccc2c(=O)n1-c1ccc(F)cc1F | inconclusive: 1.76% [signal inhibitor] | – |
| Cc1ccc(C(=O)c2sc(Nc3ccc(F)cc3)nc2N)c(C)c1 | inconclusive: 2.2% [signal inhibitor] | – |
| Cc1cc(C(=O)Nc2nnc(-c3ccccc3)s2)no1 | – | inconclusive: 3.16 µM [signal inhibitor, full curve] |
| COc1ccc(-c2nc(CNC(=O)NC3CCCCC3)c(C)o2)c(OC)c1 | inconclusive: 0.907% [signal inhibitor] | – |
| CCOC(=O)c1cc2c(=O)n3ccccc3nc2n(Cc2ccco2)c1=NC(=O)c1ccc(F)cc1 | inconclusive: 8.49% [signal inhibitor] | – |
| CCCCCCc1cc2cc(-c3cn4c(n3)sc3cc(OC)ccc34)c(=O)oc2cc1O | inconclusive: -0.772% [signal inhibitor] | – |
